Test results as given in PubChem BioAssay AID2676 (National Center for Advancing Translational Sciences (NCATS), 2010).
Where “and” joins values, the source holds several entries; their conditions need not be identical. Equal entries are not always repeated. Among all 370,000 compounds or so, about 1,100 (0.3%) were called active. Inconclusive results, whose numbers are uncertain, are shown with a selection of clear calls. Calls come from the whole dose curve; as a rule, active = well fitted activation curve with a large enough effect; inconclusive = small, poorly fitted or top-dose-only effect; inactive = flat fitted curve, though single readings scatter. Where the call is inconclusive, the potency comes from a doubtful curve fit.

Molecular target: Relaxin receptor 1 (Homo sapiens) (UniProt Q9HBX9)
Experiment: qHTS Assay for Agonists of the Relaxin Receptor RXFP1; note: nearly all actives have a fitted effect of over 60% in size
Settings: HEK293T-RXFP1 cAMP TR-FRET, 30 min; series mostly up to 57.5 µM
Outline: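 HEK293 cells stably expressing RXFP1, treated 30 min at 37C with compounds plus PDE4 inhibitor Ro 20174; cAMP measured by HTRF TR-FRET. Normalized to buffer and 29 nM porcine relaxin; EC50 by Hill fit.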
Potency is the fitted concentration of half-maximal effect; tags give direction and shape of the fitted curve.

Chain of UniProt Q9HBX9 (Q9HBX9 whole entry, looked up): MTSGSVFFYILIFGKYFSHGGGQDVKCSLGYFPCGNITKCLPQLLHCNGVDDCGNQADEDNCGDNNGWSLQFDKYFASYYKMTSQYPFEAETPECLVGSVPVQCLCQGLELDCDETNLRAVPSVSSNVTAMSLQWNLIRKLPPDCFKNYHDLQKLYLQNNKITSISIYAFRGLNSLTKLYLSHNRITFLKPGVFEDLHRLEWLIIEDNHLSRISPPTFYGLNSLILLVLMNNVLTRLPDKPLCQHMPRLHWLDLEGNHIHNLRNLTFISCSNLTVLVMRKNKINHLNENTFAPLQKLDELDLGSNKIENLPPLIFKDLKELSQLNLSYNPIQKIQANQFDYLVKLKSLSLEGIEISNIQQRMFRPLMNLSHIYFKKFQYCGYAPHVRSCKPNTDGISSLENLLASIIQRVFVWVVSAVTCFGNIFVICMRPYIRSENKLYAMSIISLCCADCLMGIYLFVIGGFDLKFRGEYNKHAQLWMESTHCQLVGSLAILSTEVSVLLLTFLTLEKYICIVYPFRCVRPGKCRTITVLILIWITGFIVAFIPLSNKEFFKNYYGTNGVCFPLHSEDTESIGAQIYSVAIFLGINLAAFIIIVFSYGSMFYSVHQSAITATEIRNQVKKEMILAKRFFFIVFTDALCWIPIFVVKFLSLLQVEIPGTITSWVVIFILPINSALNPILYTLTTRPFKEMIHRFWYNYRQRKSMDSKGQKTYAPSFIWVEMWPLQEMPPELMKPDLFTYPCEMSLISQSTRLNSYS

Potency, inactive:
CC(C)(C)c1csc(Sc2ccc([N+](=O)[O-])cn2)n1
Cc1ccc(CNC(=O)C2c3ccccc3C(=O)N3CCc4ccccc4C23)o1 (stereo not drawn)
COc1ccc(/C=C/C(=O)c2ccc([N+](=O)[O-])o2)cc1OC
CSc1cccc(N2C(=O)N(CC(=O)NCc3ccccc3Cl)c3ccccc3S2(=O)=O)c1
CNC(=O)CSc1nnc(-c2ccncc2)n1Cc1ccccc1
O=C(Nc1ccc(Oc2ccccc2)cc1)C1CCN(S(=O)(=O)c2ccccc2)CC1
CCCOc1cccc(-c2nc3ccccc3c(=O)o2)c1
COc1cccc(-c2cc(C(F)(F)F)nc(-n3cc(Cl)cn3)n2)c1
COc1ccc2[nH]c3c(=O)n(CCCCC(=O)N4CCC(C(N)=O)CC4)c(=S)[nH]c3c2c1
O=C(CCn1nnc2ccccc21)Nc1nnc(COc2ccccc2F)s1

Potency, inconclusive:
CCCCc1nc2sc3c(=O)n(N)cnc3c2c2c1CCC2 39.8 µM [activator, single point]
COc1ccc(-c2nsc3c(N4CCCC4)ncnc23)cc1 25.1 µM [activator, single point]
CCOC(=O)c1c(NC(=O)c2cc(CC(C)C)on2)sc(C(C)=O)c1C 31.6 µM [activator, single point]
N#Cc1ccc(-c2ccc(F)cc2)nc1SCC(=O)Nc1sc2c(c1C#N)CCC2 14.1 µM [activator, partial curve]
Cn1c(=S)c2[nH]c(SCCN3CCCC3)nc2n(C)c1=O 22.4 µM [activator, partial curve]
CCOC(=O)c1sc(NC(=O)CCc2ccc(OC)cc2)nc1C 6.31 µM [activator, single point]
CCc1cccc(C)c1NC(=O)C1CCN(c2nn3c(=O)cc(C)nc3s2)CC1 31.6 µM [activator, partial curve] and 15.8 µM [activator, partial curve]
Cc1ccc(-n2nc3c(N4CCC(C(=O)NC(C)c5ccccc5)CC4)nnc(C)c3c2C)cc1 (stereo not drawn) 31.6 µM [activator, single point]
CSc1nc(C)c2c(n1)N(c1ccc(C(C)C)cc1)CC2 39.8 µM [activator, single point]
O=C(COC(=O)c1ccc(N2CCCC2=O)cc1)c1ccccc1 39.8 µM [activator, single point]
Cc1nnc(SCc2ccccc2Cl)c2cc3sccc3n12 31.6 µM [activator, single point]
CN(C)c1ccc(C(=S)N2CCN(S(=O)(=O)c3ccccc3)CC2)cc1 0.1 µM [activator, full curve]
COc1ccc(OC)c(C2C(C(=O)c3cc4ccccc4o3)=C(O)C(=O)N2c2cc(C)on2)c1 (stereo not drawn) 22.4 µM [activator, partial curve]
Cc1occc1C(=O)Nc1cccc(C(F)(F)F)c1 31.6 µM [activator, single point]
Cc1ccc2c(c1)c(=O)c(C(=O)c1ccncc1)cn2CC(=O)Nc1ccc(C(C)C)cc1 39.8 µM [activator, single point]
CN(C)C(=O)CNc1n[nH]c(=S)[nH]c1=O 28.2 µM [activator, partial curve]
CC(C)C(=O)Nc1ccc(Nc2ccccc2)cc1 17.8 µM [activator, partial curve]
COc1ccccc1C(=O)Nc1ccccc1SCc1cc(=O)c2ccccc2[nH]1 39.8 µM [activator, single point]
CCN(CC)C(=O)Cn1c(=O)n(CCCCCC(=O)NCc2ccccc2)c(=O)c2sccc21 39.8 µM [activator, single point]
CC(C)(C)c1nc(SCC(=O)N2CC(=O)Nc3ccccc32)c2ccccc2n1 31.6 µM [activator, single point]
CCOc1ccc(C(=O)c2oc3ccccc3c2NC(=O)c2cc(-c3ccccc3)on2)cc1 39.8 µM [activator, single point]
COc1cccc2cc(-c3nnc(-c4ccc(Cl)cc4)o3)c(=O)oc12 35.5 µM [activator, single point]
COC(=O)c1cc(Cl)ccc1NC(=O)Cn1c(C)cc(C)c(C#N)c1=O 35.5 µM [activator, single point]
CC(C)c1nnc(NC(=O)c2ccc3c(c2)OCO3)s1 39.8 µM [activator, single point]
O=C(CSc1n[nH]c(-c2ccccc2Cl)n1)N1CCN(c2ccc(F)cc2)CC1 39.8 µM [activator, single point]
CCOC(=O)C1CCN(C(=O)c2cc3c(s2)-c2ccccc2OC3)CC1 25.1 µM [activator, partial curve]
CCOC(=O)c1c(SC)[nH]c2c(Cl)cccc2c1=O 14.1 µM [activator, partial curve]
Cc1cc2oc(C(=O)NCc3ccc(S(N)(=O)=O)cc3)c(C)c2cc1C 39.8 µM [activator, single point]
COc1ccc(S(=O)(=O)N2CCCCC2)cc1NC(=O)CSc1ncnc2ccccc12 15.8 µM [activator, partial curve]
O=C(CSc1ccc(-c2ccc3c(c2)OCO3)nn1)Nc1nccs1 31.6 µM [activator, single point]
O=C(Cc1ccccc1)Nc1nc(=O)c2ccccc2s1 39.8 µM [activator, single point]
COc1ccc(NC(=O)CSc2nc(-c3ccc(C)cc3)cc(C(F)(F)F)c2C#N)cc1 6.31 µM [activator, single point]
CCOC(=O)N1CCN(C(=O)CCCCCn2c(=S)[nH]c3cc4c(cc3c2=O)OCO4)CC1 39.8 µM [activator, single point]
Cc1ccc2nc(NC(=O)CSc3nccn3Cc3ccccc3)sc2c1 39.8 µM [activator, single point]
COc1ccc(-n2nc(C(=O)NCC(=O)Nc3cc(OC)c(OC)c(OC)c3)c3ccccc3c2=O)cc1OC 35.5 µM [activator, single point]
CSc1ncc(C(=O)Nc2cc(Cl)ccc2C)c(-c2ccccc2)n1 28.2 µM [activator, single point]
CC1=Nc2ccc(C)cc2/C1=C/c1c(N)n2oc(C)cc2nc1=O 39.8 µM [activator, single point] and 31.6 µM [activator, single point]
COC(=O)c1ccccc1NC(=O)c1cc2c(-c3ccc(OC)c(OC)c3)nn(C)c2s1 39.8 µM [activator, single point]
Cn1c(=O)c2[nH]c(N/N=C(/C#N)C(N)=O)nc2n(C)c1=O 17.8 µM [activator, partial curve]
Cc1cccc(C(=O)Nc2ccc(OCc3cc(=O)n4c5c(sc4n3)CCCC5)cc2)c1 25.1 µM [activator, partial curve]
CN(Cc1nc2ccccc2c(=O)[nH]1)C(=O)c1cccc(S(=O)(=O)N2CCCCCC2)c1 28.2 µM [activator, partial curve]
Cc1cc(OCC(=O)Nc2cc(-c3nn4c(C)nnc4s3)ccc2C)ccc1Cl 39.8 µM [activator, single point]
Cc1ccc(C)c(NC(=O)CSc2ncc3c(n2)-c2cc(Cl)ccc2N(Cc2ccccc2F)S3(=O)=O)c1 39.8 µM [activator, single point]
Cc1cc2cc(CNC(=O)NC3CCCCC3)ccc2n1C 39.8 µM [activator, single point]
O=C(Nc1ccc2c(c1)C(=O)OC2)c1ccc(C(F)(F)F)cc1 35.5 µM [activator, partial curve]
COc1ccc2nc(SCC(=O)NCC3CCCO3)c(C#N)cc2c1 (stereo not drawn) 35.5 µM [activator, single point]
Cc1c(-c2ccc(Cl)cc2)oc(=O)c2c(N)n(-c3ccccc3)nc12 31.6 µM [activator, single point]
CCOc1ccc(C(=O)Nc2ccc3oc(-c4cccc5ccccc45)nc3c2)cc1 31.6 µM [activator, partial curve]
CCOc1ccc(-c2nc(C(N)=O)c3c(n2)n(-c2ccc4c(c2)OCO4)c(=O)n3CC)cc1 8.91 µM [activator, full curve]
CCc1ccc(CNC(=O)c2cnc(N3CCCCC3)c3ccccc23)cc1 22.4 µM [activator, partial curve]

Potency, active:
Cc1cc(Br)c2nc3c(c(C(=O)O)c2c1)CCCCC3 2.24 µM
O=C(Nc1nc(=O)c2ccccc2s1)c1ccc(Cl)cc1 31.6 µM
Cc1c(CN(C)C(=O)c2cc(-c3ccccc3)nc3ccc(Br)cc23)cnn1C 15.8 µM
